Reference: PubChem BioAssay AID624296 (National Center for Advancing Translational Sciences (NCATS), 2012)
Screen size: about 350,000 compounds; about 9,900 (2.8%) were called active. The shares of active, inactive and inconclusive entries below differ from those in the screen. Calls follow the shape of the dose curve; as a rule, active = well fitted activation curve with a large enough effect; inconclusive = small, poorly fitted or top-dose-only effect; inactive = no such curve, though single readings can be large or run the other way. No potency is given beside an inconclusive call; the fits are too rough.

Experiment: A quantitative high throughput screen for small molecules that induce DNA re-replication in MCF 10a normal breast cells. Also: nearly all actives have a fitted effect of over 50% in size. As to activity, positive = re-replication: % of control where 0% means no effect.
Conditions: MCF 10A DNA re-replication, Hoechst nuclear intensity, 48 h; activity, positive = re-replication: at 46.1 µM (top of the series)
Potency is read from the fitted curve at half-maximal effect; tags tell the direction and shape of the fitted curve.

Row | Compound | Potency | activity, positive = re-replication
1 | COc1ccc(CNC(=O)Cc2nn(C)c(=O)c3ccccc23)cc1 | inactive | 
2 | COc1cc(-c2ccc3oc(-c4ccsc4)cc(=O)c3c2)cc(OC)c1OC | inconclusive [activator, partial curve, poor fit] | 
3 | O=C(CSc1nc2cc(Cl)ccc2s1)N1CCCc2ccccc21 | inconclusive [activator, single point] | 
4 | O=C1C=C(c2ccc(O)cc2)C[C@@H](c2ccc(Cl)cc2)C1 | inconclusive [activator, single point] | 
5 | c1ccc2[nH]c3cc4ncnc4cc3nc2c1 | inactive | 
6 | O=[N+]([O-])c1ccc(N2CCN(S(=O)(=O)Cc3ccccc3)CC2)cc1N1CCOCC1 | inconclusive [activator, single point] | 
7 | COc1cccc(CNC(=O)c2ccc(C3SCCS3)cc2)c1 | inactive | 
8 | CCOc1ccc2nc(NCCCNS(=O)(=O)c3ccc(C)cc3)c(C#N)cc2c1 | inconclusive [activator, partial curve, poor fit] | 
9 | N=C1C(c2nc3ccccc3[nH]2)=C(O)CN1c1ccccc1 | inconclusive [activator, single point] | 
10 | Cc1ccc(OC(=S)Nc2ccccc2)c(C)c1 |  | inactive: -190% [at 0.0737 µM]
11 | COCCN(C(=O)COC(=O)/C=C/c1ccc(C)o1)c1c(N)n(Cc2ccccc2)c(=O)[nH]c1=O | inconclusive [activator, full curve, poor fit] | 
12 | Cc1ccc(OCC(=O)Nc2nnc(S(=O)(=O)N3CCC(C)CC3)s2)cc1 | inconclusive [activator, single point] | 
13 | CC(C)c1ccc(NC(=O)c2cccnc2)cc1 | inactive | 
14 | c1ccc(-c2nc(NCc3ccco3)c3ccccc3n2)nc1 | inconclusive [activator, full curve] | 
15 | Cc1ccc(F)cc1NC(=O)C1CC(=O)N(CCc2ccccc2)C1 (stereo not given) | inconclusive [activator, single point] | 
16 | CCc1ccc(N2C(=O)CC(N3CCC(C(=O)OC)CC3)C2=O)cc1 (stereo not given) | inconclusive [activator, single point] | 
17 | Clc1ccc(Nc2ncnc3ccc(Br)cc23)cc1 | inconclusive [activator, single point] | 
18 | CCCC(c1nnnn1CS(=O)(=O)c1ccc(C)cc1)N1CCN(C2CCCC2)CC1 (stereo not given) | inconclusive [activator, single point] | 
19 | CCCn1c(SCC#N)nc2c(c1=O)C1(CCCC1)Cc1ccccc1-2 | inconclusive [activator, partial curve, poor fit] | 
20 | COc1ccccc1/C=C/C=N/n1c(-c2ccc(Cl)cc2)n[nH]c1=S | inconclusive [activator, full curve, poor fit] | 
21 | CCOC(=O)c1sc2nc(C(C)C)c3c(c2c1N)CC(C)(C)OC3 | inconclusive [activator, full curve, poor fit] | 
22 | CN(c1ccccc1C(=O)O)S(C)(=O)=O | inactive | 
23 | CCOc1ccc(-c2csc(NC(=O)CSC3=NC(=O)CN3C(C)=O)n2)c2ccccc12 | inconclusive [activator, partial curve, poor fit] | 
24 | COc1ccc(/C=C2\SC(=S)N(CCCC(=O)Nc3ccc(O)cc3)C2=O)cc1 | inactive | 

Row | Compound | Potency | activity, positive = re-replication
25 | O=C(NCC1CCCO1)c1nn2c(C(F)(F)F)cc(-c3cc(Br)cs3)nc2c1Br (stereo not given) | active: 14.6 µM | 
26 | O=C(NCc1ccncc1)C(=O)N/N=C/c1ccc(OCc2ccccc2)cc1 | inactive | 
27 | CCOCCCn1c(SCC(=O)Nc2ccccc2)nc2ccccc2c1=O | inactive | 
28 | COc1ccc(-c2cnnc(N/N=C/c3ccc(O)c(OC)c3)n2)cc1 | active: 14.6 µM | 
29 | Cc1cc(C=C2C(=O)c3ccccc3C2=O)c(C)n1-c1ccccc1 | inconclusive [activator, full curve, poor fit] | 
30 | Nc1nc(-c2ccc3ccccc3c2)c(C2(O)C(=O)Nc3c(Br)cc(F)cc32)s1 (stereo not given) | inactive | 
31 | COc1ccc(NC(=O)C2CCCN(S(=O)(=O)c3cccnc3)C2)cc1OC (stereo not given) | inactive | 
32 | O=C(C1CCC(=O)N1C1CCCCC1)N1CCN(c2ccc(F)cc2)CC1 (stereo not given) | inconclusive [activator, single point] | 
33 | CCOc1cc(/C=C2\C(=O)N(c3ccc(C(N)=O)cc3)N=C2C)ccc1OC(=O)c1cccs1 | inconclusive [activator, partial curve, poor fit] | 
34 | Cc1ccccc1NC(=O)C1CCCN1S(=O)(=O)c1ccccc1C(F)(F)F (stereo not given) | inactive | 
35 | O=C(CSc1ccc(F)cc1)Nc1ccc(C2SCCS2)cc1 | inconclusive [activator, single point] | 
36 | CC(=O)Nc1cccc(NC(=O)CSc2nc(C)c(C)c(C)c2C#N)c1 | inactive | 
37 | Cc1ccc(NC(=O)CN2CCc3ccccc3C2)cc1C | inconclusive [activator, single point] | 
38 | COc1cc(-c2nnc3n(CCc4ccccc4)c(=O)c4ccccc4n23)cc(OC)c1OC | inconclusive [activator, partial curve, poor fit] | 
39 | Cc1cc(F)ccc1S(=O)(=O)N1CCC2(CC1)OCCN2S(=O)(=O)c1cccs1 | inconclusive [activator, partial curve] | 
40 | O=C1OC[C@H]2CCCC[C@@H](CO)ON12 | inconclusive [activator, single point] | 
41 | CC1(C)CN(c2cccc(Br)c2)C1=O | inactive | 
42 | Cc1ccc(C(=O)c2cc([N+](=O)[O-])ccc2N2CCOCC2)cc1C | inconclusive [activator, full curve, poor fit] | 
43 | O=C1CCC(=O)N(O)CCCCCNC(=O)CCC(=O)N(O)CCCCNC(=O)CCC(=O)N(O)CCCCCN1 | inconclusive [activator, partial curve] | 
44 | COC(=O)[C@]1(C)CCC[C@@]2(C)C3CC[C@@]4(C)C[C@]3(CCC21)CC4=NO (stereo not given in full) | inactive | 
45 | O=C(NCCC1=CCCCC1)c1coc(=O)c(Br)c1 | active: 11.6 µM | 
46 | CC(C)(C)c1ccc(/C=N/Nc2ccc(C(=O)O)cc2)cc1 | inconclusive [activator, single point] | 
47 | CCCOc1ccc2cc(-c3ccccn3)c(=O)oc2c1 | inconclusive [activator, partial curve, poor fit] | 
48 | COc1cccc(C(=O)NN/C(C)=C/C(=O)C(F)(F)C(F)(F)C(F)(F)F)c1 | inconclusive [activator, partial curve] | 

Row | Compound | Potency | activity, positive = re-replication
49 | CCN(CC(=O)Nc1cccc(S(=O)(=O)N2CCCC2)c1)CC(=O)Nc1ccccc1OC | inactive | 
50 | C/C(=N\NC(=O)C(c1ccccc1)c1ccccc1)c1ccc(O)cc1 | inactive | 
51 | COc1cc2ccccc2cc1C(=O)Nc1ccc(NC(=O)c2cccs2)cc1 | inactive | 
52 | O=c1c2ccccc2nnn1CSc1ccc2ccccc2n1 | inconclusive [activator, single point] | 
53 | Cc1ccccc1OC1C(=O)N(Cc2ccc3c(c2)OCO3)C1c1sccc1C (stereo not given) | inconclusive [activator, single point] | 
54 | Cc1ccc(C(=O)N/C(=C\c2ccco2)C(=O)N2CCCCC2)cc1 | inactive | 
55 | COC(=O)c1ccc(NC(=S)N2CCN(Cc3ccc(Cl)cc3)CC2)cc1 | inconclusive [activator, single point] | 
56 | COc1cc(/C=C/C(=O)OCC(=O)N2CCC(C)CC2)ccc1OCC#N | inactive | 
57 | O=C(COC(=O)/C=C/c1cn(-c2ccccc2)nc1-c1cccnc1)Nc1ccc(Cl)cc1Cl | inconclusive [activator, single point] | 
58 | O=[N+]([O-])c1cc(/C=N/O)ccc1Sc1ccccc1 | inconclusive [activator, partial curve, poor fit] | 
59 | COc1ccc(C2CN=NC2C(=O)c2ccccc2)cc1 (stereo not given) | inactive | 
60 | COC(=O)[C@H]1[C@@H](C)N(Cc2ccccc2)C(=O)N[C@H]1c1cccc(C(F)(F)F)c1 | inconclusive [activator, partial curve, poor fit] | 
61 | Fc1ccccc1/C=C1\CCCC2=C1Nc1nnnn1C2c1ccccc1F (stereo not given) | inconclusive [activator, single point] | 
62 | O=C(CNC(=S)N(Cc1ccccc1)Cc1ccccc1F)NCCc1ccc(Cl)cc1 | inconclusive [activator, single point] | 
63 | Cc1ccc(C(=O)NNC(=S)NC(=O)c2ccccc2)cc1 | inconclusive [activator, partial curve, poor fit] | 
64 | COc1ccc(-n2c(C)cc(SC)c(C(C)=O)c2=S)cc1 | inconclusive [activator, full curve, poor fit] | 
65 | Cc1ccc(NC(=O)c2ccc(Cl)c(N3C(=O)C=CC3=O)c2)cc1 | active: 14.6 µM | 
66 | COc1ccc(C(=O)c2ccc(OC)c(OC)c2)cc1OC | inactive | 
67 | CCN(CC)CCNC(=O)c1ccc(NC(=O)c2cn(-c3ccccc3)nc2-c2cccs2)cc1 | inconclusive [activator, single point] | 
68 | COc1ccc(-c2n(Cc3ccccc3)c3ccccc3[n+]2Cc2ccccc2)cc1 | inactive | 
69 | COc1cccc(-c2csc(N3CCN(C(=O)C4CCCCC4)CC3)n2)c1 | active: 14.6 µM | 
70 | O=c1c(-c2ccc(F)cc2)[n+]([O-])c2ccccc2n1OCc1ccccn1 | inconclusive [activator, single point] | 
